From the supplement of paper PMC7266297 come the findings set out here.

Counter-ions that a name gives are not always drawn. This is one part of the list. Many values rest on one well or one pass, so single values are uncertain.
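Also: Read-out is SRB optical density at 490 nm, with the control being wells given 0.5% DMSO vehicle, and compound added one day after cells were plated.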

For one assay, the system named is KB-3-1. Kind of assay: growth inhibition relative to DMSO control (SRB); cervical cancer cells: KB-3-1 is the parent and KB-V1 overexpresses MDR1; SRB is the sulforhodamine B stain; higher = more growth inhibition. As to conditions: 1 µM; 72 h.
`Cc1cc(NC(=O)Nc2ccc(N(C)C)cc2)c2cc(F)cc(F)c2n1` yielded a growth inhibition of 19%.
For `COc1ccc2cc(CCC(C)=O)ccc2c1` [Nabumetone], the growth inhibition stood at 9.37%.
In turn, `CCN(CC)CCOC(=O)c1ccc(N)cc1` [Procaine HCl] gave a growth inhibition of less than 0%.
Compound `CCN1CCN(c2ccc(Nc3cc(N(C)C(=O)Nc4c(Cl)c(OC)cc(OC)c4Cl)ncn3)cc2)CC1` registered a growth inhibition of less than 0%.
On the same count and under the same terms, the same measure for `Clc1ccc2c(c1)CCc1cccnc1C2=C1CCNCC1` [Desloratadine]: less than 0%; for `O=c1cc(N2CCOCC2)oc2c1ccc1ccccc12`: 13.5%.
Still for that read-out and setting: the same measure for `O=C(COc1cccc2c(=O)[nH]ccc12)c1ccccc1`: 49.9%.
The same measure, in the same setting: the same measure for `Fc1cc(-c2cccc3ncc(-c4cnn(C5CCNCC5)c4)nc23)cc(F)c1CN1CCOCC1`: less than 0%.
With `CN1CCC(=C2c3ccccc3C=Cc3ccccc32)CC1` [Cyproheptadine HCl], the growth inhibition is 24.5%.
Same read-out and setting: the same measure for `COc1ccc(-c2ccc3c(N4CCOC[C@@H]4C)nc(N4CCOC[C@@H]4C)nc3n2)cc1CO`: 90.6%; for `CCN(CC)CC(=O)Nc1c(C)cccc1C` [Lidocaine]: 4.87%.
Same read-out and setting: the result for `CCC(CC)(NC(=O)C(C)C)C(=O)N[C@@H](CCCN=C(N)N)C(=O)NC1(C(=O)NC(c2ccc(F)cc2)c2ccc(F)cc2)CCCC1` reads less than 0%; that for `Nc1nc(=O)n([C@@H]2CS[C@H](CO)O2)cc1F` [Emtricitabine], 44.4%; that for `O=C(C=Cc1ccccc1)NC(NC(=S)Nc1ccc(Cl)cc1)C(Cl)(Cl)Cl` (configuration not stated), 57.9%.
For the compound `CC(C)c1c(C(=O)Nc2ccccc2)c(-c2ccccc2)c(-c2ccc(F)cc2)n1CC[C@@H](O)C[C@@H](O)CC(=O)O` [Atorvastatin Calcium], the growth inhibition amounted to 21.8%.
As to `CN(C)CCCN1c2ccccc2Sc2ccc(Cl)cc21` [Chlorpromazine HCl], the growth inhibition stood at 29.6%.
`CN(C)C(=O)c1cc2cnc(Nc3ccc(N4CCNCC4)cn3)nc2n1C1CCCC1` registered a growth inhibition of 47.2%.
Regarding `Cc1ccc(CNc2ncnc3ccc(-c4ccc(CO)o4)cc23)o1`, the growth inhibition is 55.9%.
Still for that read-out and setting: the same measure for `Cc1cc(C)c(/C=C2\C(=O)Nc3ccccc32)[nH]1` [Semaxanib (SU5416)]: 28%; for `CC(C)CCNC(=O)[C@H](CC(C)C)NC(=O)[C@H]1O[C@@H]1C(=O)O` [Loxistatin Acid (E-64C)]: 50%.
For `Cc1cc(Cl)ccc1OCCCC(=O)NO` [Droxinostat], the growth inhibition was found to be 15.6%.
Same read-out and setting: the result for `CN1CCN(c2ccc3nc(-c4c(N)c5c(F)cccc5[nH]c4=O)[nH]c3c2)CC1` [Dovitinib (TKI-258, CHIR-258)] reads 74.1%; that for `CN1CCC(=C2c3ccccc3CCc3cccnc32)CC1` [Azatadine dimaleate], less than 0%.
Turning to `COc1ccc(C2=N[C@@H](c3ccc(Cl)cc3)[C@@H](c3ccc(Cl)cc3)N2C(=O)N2CCNC(=O)C2)c(OC(C)C)c1` [Nutlin-3], the growth inhibition is 14.3%.
On the same count and under the same terms, the same measure for `O=C(Nc1cccc(Cl)c1)c1ccccn1`: 21.4%.
Same read-out and setting: the same measure for `Cc1cc(Nc2ccc(NC(=O)c3ccc(Nc4ccnc5ccccc45)cc3)cc2)nc(N)n1`: 100%; for `CO[C@H]1C[C@@H]2CC[C@@H](C)[C@@](O)(O2)C(=O)C(=O)N2CCCC[C@H]2C(=O)O[C@H]([C@H](C)C[C@@H]2CC[C@@H](O)[C@H](OC)C2)CC(=O)[C@H](C)/C=C(\C)[C@@H](O)[C@@H](OC)C(=O)[C@H](C)C[C@H](C)/C=C/C=C/C=C/1C` [Rapamycin (Sirolimus)]: 74.9%.

Another assay deals with KB-V1. The description is as above. Particulars: 1 µM; 72 h.
For `CN(C)CC/C=C1/c2ccccc2COc2ccc(CC(=O)O)cc21` [Olopatadine HCl], the growth inhibition turned out to be 2.13%.
`CNC(=O)c1cc(Oc2ccc(NC(=O)Nc3ccc(Cl)c(C(F)(F)F)c3)cc2)ccn1` [Sorafenib Tosylate]: the growth inhibition came out at 17.8%.
In the case of `C=C(C)[C@@H]1CC[C@]2(C(=O)O)CC[C@]3(C)[C@H](CC[C@@H]4[C@@]5(C)CC[C@H](O)C(C)(C)[C@@H]5CC[C@]43C)[C@@H]12` [Betulinic acid], the growth inhibition is 13.9%.
On the same count and under the same terms, the result for `C=CC(=O)Nc1cccc(Oc2nc(Nc3ccc(N4CCN(C)CC4)cc3OC)ncc2Cl)c1` reads 39.9%.
Still for that read-out and setting: the same measure for `Cc1cc(OCc2nnc(SC3CCCC3)n2-c2cccnc2)ccc1-c1ccc(S(C)(=O)=O)cc1`: 71.8%; for `COc1cccc2c1C(=O)c1c(O)c3c(c(O)c1C2=O)C[C@@](O)(C(=O)CO)C[C@@H]3O[C@H]1C[C@H](N)[C@H](O)[C@H](C)O1` [Doxorubicin (Adriamycin)]: 59.7%; for `CC(C)C(=O)Oc1ccc(CO)cc1[C@H](CCN(C(C)C)C(C)C)c1ccccc1` [Fesoterodine Fumarate]: 51.4%.
With `Cc1cc(C(=O)NOCCO)c(Nc2ccc(I)cc2F)n(C)c1=O`, the growth inhibition was 43.9%.
Same read-out and setting: the result for `COc1ccc(CCC(=O)Nc2nc3ccc(Cl)cc3s2)cc1OC` reads 9.32%; that for `COc1cc2c(cc1OC)[C@@H]1Cc3ccc(OC)c(OC)c3CN1CC2` [Rotundine], 34.6%.
Still for that read-out and setting: the result for `COc1cc2ncnc(Nc3ccc(Cl)cc3F)c2cc1OC` reads 10%.
Still for that read-out and setting: the same measure for `NC1(Cc2ccc(Cl)cc2)CCN(c2ncnc3[nH]ccc23)CC1`: less than 0%; for `c1cncc(CN2CCC(n3ncc4c(N5CCOCC5)nc(-c5ccc6[nH]ccc6c5)nc43)CC2)c1`: 34.3%; for `Cc1cc(NC(=O)Nc2ccc(N(C)C)cc2)c2cc(F)cc(F)c2n1`: 10.9%.
Compound `COc1ccc2cc(CCC(C)=O)ccc2c1` [Nabumetone] gave a growth inhibition of 1.95%.
Still for that read-out and setting: the same measure for `CCN(CC)CCOC(=O)c1ccc(N)cc1` [Procaine HCl]: less than 0%; for `CCN1CCN(c2ccc(Nc3cc(N(C)C(=O)Nc4c(Cl)c(OC)cc(OC)c4Cl)ncn3)cc2)CC1`: 47.7%.
On the same count and under the same terms, the same measure for `Clc1ccc2c(c1)CCc1cccnc1C2=C1CCNCC1` [Desloratadine]: less than 0%; for `O=c1cc(N2CCOCC2)oc2c1ccc1ccccc12`: less than 0%; for `O=C(COc1cccc2c(=O)[nH]ccc12)c1ccccc1`: 19.1%.
The same measure, in the same setting: the same measure for `Fc1cc(-c2cccc3ncc(-c4cnn(C5CCNCC5)c4)nc23)cc(F)c1CN1CCOCC1`: 4.69%; for `CN1CCC(=C2c3ccccc3C=Cc3ccccc32)CC1` [Cyproheptadine HCl]: 26.7%; for `COc1ccc(-c2ccc3c(N4CCOC[C@@H]4C)nc(N4CCOC[C@@H]4C)nc3n2)cc1CO`: 84%.
The compound `CCN(CC)CC(=O)Nc1c(C)cccc1C` [Lidocaine] yielded a growth inhibition of 33.3%.
With `CCC(CC)(NC(=O)C(C)C)C(=O)N[C@@H](CCCN=C(N)N)C(=O)NC1(C(=O)NC(c2ccc(F)cc2)c2ccc(F)cc2)CCCC1`, the growth inhibition is less than 0%.
Same read-out and setting: the result for `Nc1nc(=O)n([C@@H]2CS[C@H](CO)O2)cc1F` [Emtricitabine] reads 14%.
Take `O=C(C=Cc1ccccc1)NC(NC(=S)Nc1ccc(Cl)cc1)C(Cl)(Cl)Cl` (configuration not stated): the growth inhibition came out at 13%.
Same read-out and setting: the result for `CC(C)c1c(C(=O)Nc2ccccc2)c(-c2ccccc2)c(-c2ccc(F)cc2)n1CC[C@@H](O)C[C@@H](O)CC(=O)O` [Atorvastatin Calcium] reads 21.8%; that for `CN(C)CCCN1c2ccccc2Sc2ccc(Cl)cc21` [Chlorpromazine HCl], 18%.
On the same count and under the same terms, the result for `CN(C)C(=O)c1cc2cnc(Nc3ccc(N4CCNCC4)cn3)nc2n1C1CCCC1` reads 13%; that for `Cc1ccc(CNc2ncnc3ccc(-c4ccc(CO)o4)cc23)o1`, 16.7%; that for `Cc1cc(C)c(/C=C2\C(=O)Nc3ccccc32)[nH]1` [Semaxanib (SU5416)], 13.4%.
Still for that read-out and setting: the same measure for `CC(C)CCNC(=O)[C@H](CC(C)C)NC(=O)[C@H]1O[C@@H]1C(=O)O` [Loxistatin Acid (E-64C)]: 10.5%; for `Cc1cc(Cl)ccc1OCCCC(=O)NO` [Droxinostat]: 41.8%.
In turn, `CN1CCN(c2ccc3nc(-c4c(N)c5c(F)cccc5[nH]c4=O)[nH]c3c2)CC1` [Dovitinib (TKI-258, CHIR-258)] displayed a growth inhibition of 71.8%.
With `CN1CCC(=C2c3ccccc3CCc3cccnc32)CC1` [Azatadine dimaleate], the growth inhibition was 3.17%.
In the case of `COc1ccc(C2=N[C@@H](c3ccc(Cl)cc3)[C@@H](c3ccc(Cl)cc3)N2C(=O)N2CCNC(=O)C2)c(OC(C)C)c1` [Nutlin-3], the growth inhibition amounted to 35.3%.
`O=C(Nc1cccc(Cl)c1)c1ccccn1` registered a growth inhibition of 16.9%.
Take `Cc1cc(Nc2ccc(NC(=O)c3ccc(Nc4ccnc5ccccc45)cc3)cc2)nc(N)n1`: the growth inhibition was 15.4%.
For `CO[C@H]1C[C@@H]2CC[C@@H](C)[C@@](O)(O2)C(=O)C(=O)N2CCCC[C@H]2C(=O)O[C@H]([C@H](C)C[C@@H]2CC[C@@H](O)[C@H](OC)C2)CC(=O)[C@H](C)/C=C(\C)[C@@H](O)[C@@H](OC)C(=O)[C@H](C)C[C@H](C)/C=C/C=C/C=C/1C` [Rapamycin (Sirolimus)], the growth inhibition amounted to 49.7%.
